The other results are listed elsewhere or left out. The main result of the screen is listed elsewhere. These columns were measured beside it and carry no call. Compounds called inactive in the main read-out are mostly missing here.
test: growth inhibition of WT strain, primary screen, mitochondrial fusion inhibitor project, WT and mutant strains, chemical genetic (AID 1362); details: mitochondrial fusion phenotypic screen, at 10 µM; note: tested in S. cerevisiae

| Structure (SMILES) | inhibition |
| --- | --- |
| CCN1/C(=C/c2ccc3cc(C)cc(C)c3[n+]2CC)Sc2cc(C)ccc21 | 90.4% |
| O=C(O)c1ccc(C=C(c2nc3ccccc3s2)c2nc3ccccc3s2)cc1 | 28.3% |
| CCC1CCCCN1c1cc(C)nc2cc(-c3cccc(C)c3)nn12 (centres undefined) | 37.4% |
| O=C(Nc1ccc(Cl)c(Cl)c1)c1ccc(Cn2cc(Cl)cn2)cc1 | 27.9% |
| Cc1ccc(O)c(-c2cc(-c3ccccc3C)[nH]n2)c1 | 76.7% |
| CC(C)(C)C1CCc2c(sc(NC(=O)CSc3ncn[nH]3)c2C#N)C1 (centres undefined) | 21.9% |
| O=C(COc1ccc([N+](=O)[O-])cc1)NNC(=S)NC(=O)c1ccc(Br)cc1 | 45.3% |
| c1ccc(N/N=C2\CCCc3ccccc32)nc1 | 29% |
| Cc1cc(C)cc(-n2c(C)cc(/C=N/NC(=O)CN(c3c(C)cccc3C)S(C)(=O)=O)c2C)c1 | -1.45% |
| O=C(Oc1ccc(-c2nnco2)cc1)N(c1ccccc1)c1ccccc1 | 14.3% |
| Cc1cc(C)c(Cn2cnc(-c3ccc([N+](=O)[O-])cc3)c2)c(C)c1 | 54.3% |
| CC(C)CCNC(=S)Nc1ccc(Br)cc1 | 24.4% |
| Cc1nc(S/C(=C/c2ccc(-c3cccc(Cl)c3)o2)C(=O)O)n[nH]1 | 64.5% |
| O=C1CCC(/C=C/c2ccccc2)=NN1Cc1ccccc1Cl | 41.9% |
| O=C(N/N=C/c1c(Cl)cccc1Cl)c1n[nH]c2c1CCCC2 | -8.87% |
| COc1ccc(/C=C2\CCc3ccccc3C2=O)cc1Cn1nc(C)cc1C | 69% |
| O=C(c1cc(-c2ccccc2)nc2ccccc12)N1CCc2ccccc2C1 | 57.5% |
| O=C(CSc1ncnc2c(-c3ccc(Cl)cc3)nsc12)c1ccccc1 | 69.2% |
| CCOc1ccccc1-n1c(CN2CCN(C(=O)c3ccco3)CC2)nc2ccccc2c1=O | 8.43% |
| N#Cc1ccc(-c2cccnc2)nc1SCc1ccc(Cl)c(Cl)c1 | 26.6% |
| COc1ccccc1-c1c(C#N)c(N)nc2c1CCc1ccccc1-2 | 42.1% |
| CCc1ccccc1NC(=O)/C(=C/c1ccco1)c1ccccc1 | 21.9% |
| CCc1ccc(C2=NN(c3ccc(S(N)(=O)=O)cc3)C(c3ccc(F)cc3)C2)cc1 (centres undefined) | 59.4% |

| Structure (SMILES) | inhibition |
| --- | --- |
| COc1cc(OC)c(NC(=S)Nc2cc(Cl)cc(Cl)c2)cc1Cl | 48.9% |
| O=C(Nc1ccccc1)Nc1ccc(Cl)c([N+](=O)[O-])c1 | 63.5% |
| Cc1cccc2sc(N(CCCN(C)C)C(=O)COc3ccc(Cl)cc3)nc12 | 88.7% |
| COc1ccc(Cl)cc1NC(=S)NCCSc1ccc(C)cc1 | 48.8% |
| Cc1cc(-c2nn(-c3ccccc3F)cc2CN2CCN(c3ccccn3)CC2)c(C)s1 | 32% |
| Cc1ccc2c(N)c(C#N)sc2n1 | 0.66% |
| COc1ccc(OC)c(-c2cc(C3CCN(c4cc(Cl)nc(N)n4)CC3)[nH]n2)c1 | -13.2% |
| CN(Cc1cccs1)c1nc(-c2cccnc2)nc2ccccc12 | 43.5% |
| CC1(C)C(=O)OC(c2cccn2-c2cccc([N+](=O)[O-])c2)C2(CCCCC2)C1=O (centres undefined) | 18.4% |
| CCCCNC(=S)N(C)/N=C/c1c(F)c(F)c(F)c(F)c1F | 4.89% |
| COc1cccc(C(=O)Nc2nc(-c3ccccc3)c(-c3ccccc3)o2)c1 | 27.1% |
| CSc1ccc(/C=N/n2c(Cc3ccc(Br)cc3)n[nH]c2=S)cc1 | 24.3% |
| CCOC(=O)C1=C(c2cccc(Oc3ccccc3)c2)NC(=S)NC1C (centres undefined) | 23.6% |
| CCN1/C(=C/c2ccc3cc(C)ccc3[n+]2C)Sc2ccc3sccc3c21 | 80.1% |
| O=C(Nc1ccc(Cl)c(S(=O)(=O)Nc2ccccc2Cl)c1)c1cccs1 | 81.3% |
| Cc1cc(=O)oc(C)c1C(=O)Nc1ccc2nsnc2c1 | -8.26% |
| CC1=CCC[C@@H]2[C@@](C)(CC/C(C)=C/C(=O)O)[C@H](C)CC[C@@]12C | -14.9% |
| Cc1ccc(C)c(N2CCN(C(=O)Cc3cn(C)c4ccccc34)CC2)c1 | 3.19% |
| Cc1cccc(C(=O)c2cnc3ccccc3c2-c2ccccc2)c1 | 29% |
| CCCCNC(=S)N1CCN(C(c2ccccc2)c2ccccc2)CC1 | 20.6% |
| Oc1cccc(/C=N/N(Cc2ccccc2)c2ccccc2)c1 | 88.3% |
| CC(C)SC1=NC(C)(C)C=C(/C=C/c2ccc(Cl)cc2Cl)N1 | 30.4% |
| CC(C)SC1=NC(C)(C)C=C(/C=C/c2c(Cl)cccc2Cl)N1 | 33.3% |

| Structure (SMILES) | inhibition |
| --- | --- |
| CCC1(c2ccccc2)NC(=S)N(c2ccc(C)c(C)c2)N1 (centres undefined) | 53.9% |
| CCOc1cc(/C=C2/SC(=S)NC2=O)ccc1OC(=O)c1ccco1 | 34.7% |
| COc1cc(/C=C2\SC(=O)N(c3ccccc3Cl)C2=O)cc([N+](=O)[O-])c1O | 32.9% |
| COc1cc(/C=C2\SC(=O)N(Cc3ccc(F)cc3)C2=O)cc([N+](=O)[O-])c1O | 44.7% |
| COCCN=c1scc(-c2cc(OC)ccc2OC)n1/N=C/c1c[nH]c2ccccc12 | 12.7% |
| C=CCc1c(C)c(C#N)c2nc3ccccc3n2c1NCCN(C)C | 59.2% |
| O=C(COC(=O)c1ccccn1)Nc1cccc(Cl)c1Cl | 6.98% |
| CC12CCC(c3c(C(=O)O)nn(-c4ccc(F)cc4)c31)C2(C)C (centres undefined) | 4.67% |
| CCOC(=S)SCC(=O)Nc1nc(-c2ccccc2)cs1 | 79% |
| O=C1NN=C(c2ccc(Cl)cc2)CC1c1cccc(Br)c1 (centres undefined) | 57.7% |
| O=C1CC(C(=O)NCc2ccccc2)C2(CCCC2)O1 (centres undefined) | 11.4% |
| Oc1ccc2ccccc2c1/C=N/c1nc2c(s1)CCCC2 | 3.62% |
| Cc1ccsc1C(=O)NCCC(c1ccccc1)c1ccccc1 | 45.2% |
| Cc1ccccc1NC(=S)N(Cc1ccccn1)Cc1ccccc1Cl | 52.1% |
| CCOc1ccc(C(c2c(NC(=O)c3ccccc3)sc(C)c2C)N2CCN(CCO)CC2)cc1 (centres undefined) | 36% |
| O=C(NC1CCCCC1)c1sc(=S)n2c1[nH]c(=O)c1ccccc12 | 35.7% |
| CCc1nn2cc(C(=O)c3cc(Cl)ccc3O)cnc2c1-c1ccc(F)cc1 | 69.3% |
| CC(=O)OCC(=O)N1N=C(c2ccc3ccccc3c2)CC1c1ccccc1 (centres undefined) | 38.5% |
| CC(NC(=O)CSc1nc(=O)cc(N)n1CCc1ccccc1)c1ccccc1 (centres undefined) | 12.7% |
| CC(C)(C)c1ccc(-c2nnc(SCCC#N)n2C2CCCC2)cc1 | 19.6% |
| CCn1c(CCCOc2ccc(Cl)cc2Cl)nnc1SCC(=O)Nc1cc(F)ccc1C | 23% |
| CCOc1ccc(NC(=O)C2CC(=O)N(C(C)C)C2)cc1 (centres undefined) | 3.31% |
| O=C1Nc2ccc(Cl)cc2[C@@](C#CC2CC2)(C(F)(F)F)O1 | 46.7% |

Source: PubChem BioAssay AID1362 (SRMLSC, 2008)
